Hit rate of the full screen: of about 39,000 compounds, about 220 (0.56%) showed activity. The list shows a part of the results.
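Further: static incubation at 37 °C against the wild-type strain, values averaged over two biological replicates.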

The test system of the assay is Escherichia coli K-12 BW25113. Kind of assay: relative growth (OD600 normalised to plate interquartile mean) (fraction); higher = less growth inhibition, active = 0.2 or less. Particulars: 50 µM; LB; incubation time: overnight (16-24 h).
`Cc1ccccc1S(=O)(=O)N1C[C@@H](O)COC[C@@H]2O[C@H](CC(=O)N3CCN(C)CC3)CC[C@H]21`: the relative growth was inactive: 0.981.
Under `C[C@H](CO)N1C[C@H](C)[C@@H](CN(C)C(=O)Nc2ccccc2C(F)(F)F)OCc2ccccc2-c2ccccc2C1=O` stands inactive: 0.995; under `COc1cccc(NC(=O)C[C@@H]2CC[C@@H]3[C@@H](COc4ccc(NC(=O)C5CCOCC5)cc4C(=O)N3C)O2)c1`, inactive: 1.02.
For the molecule `C[C@H]1CN([C@@H](C)CO)C(=O)c2cccc(NC(=O)c3cnccn3)c2O[C@H]1CN(C)S(=O)(=O)c1cccs1`, the relative growth is inactive: 0.978.
Under `CO[C@H]1CN(C)C(=O)c2ccc(NC(=O)CC(F)(F)F)cc2OC[C@H](C)N(C(=O)C2CCOCC2)C[C@@H]1C` stands inactive: 1.01; under `CCC(C)C1OC2(CCC1C)CC1CC(CC=C(C)C(OC3CC(OC)C(OC4CC(OC)C(O)C(C)O4)C(C)O3)C(C)C=CC=C3COC4C(O)C(C)=CC(C(=O)O1)C34O)O2` (stereo not given), inactive: 0.891; under `CCC(CCC(C)C1CCC2C3CC=C4CC(OC(C)=O)CCC4(C)C3CCC12C)C(C)C` (stereo not given), inactive: 1.15.
With `COc1cc(C(=O)OCCCN2CCCN(CCOC(=O)c3cc(OC)c(OC)c(OC)c3)CC2)cc(OC)c1OC`, the relative growth is inactive: 0.958.
Under `Cc1cc(C(=O)Nc2cccc3c2O[C@H](CN(C)S(=O)(=O)c2cccs2)[C@H](C)CN([C@H](C)CO)C3=O)n(C)n1` stands inactive: 0.987; under `C[C@@H]1CCCCO[C@H](CN(C)C(=O)NC2CCCCC2)[C@H](C)CN([C@H](C)CO)C(=O)c2cc(NC(=O)c3ccncc3)ccc2O1`, inactive: 0.978; under `C[N+](C)(CCOc1ccccc1)Cc1ccccc1.O=C([O-])c1cc2ccccc2cc1O`, inactive: 0.93.
Consider `C[C@@H]1CCCCO[C@H](CN(C)Cc2ccc(C(=O)O)cc2)[C@@H](C)CN([C@@H](C)CO)C(=O)c2cc(NC(=O)Nc3ccccc3)ccc2O1`, for which the relative growth was inactive: 0.974.
On to `COc1ccc(S(=O)(=O)N2C[C@H](O)COC[C@H]3O[C@H](CC(=O)N[C@H]4CCN(Cc5ccccc5)C4)CC[C@@H]32)cc1`, for which the relative growth is inactive: 0.99.
`COc1ccc(CN(C)C[C@@H]2Oc3ccc(NS(=O)(=O)c4c(C)noc4C)cc3CC(=O)N([C@H](C)CO)C[C@H]2C)cc1`: the relative growth was inactive: 0.994.
Under `CO[C@@H]1CN(C)C(=O)c2cc(NC(=O)C3CC3)ccc2OC[C@H](C)N(C(=O)C2CCOCC2)C[C@H]1C` stands inactive: 0.989; under `COC(=O)N/N=C/c1ccc([N+](=O)[O-])o1`, active: 0.0393; under `Cc1noc(C)c1S(=O)(=O)Nc1ccc2c(c1)C(=O)N([C@@H](C)CO)C[C@H](C)[C@@H](CN(C)S(=O)(=O)c1cn(C)cn1)OCCCC[C@H](C)O2`, inactive: 0.997.
To `C[C@H]1CCCCO[C@@H](CN(C)C(=O)Nc2ccc3c(c2)OCO3)[C@@H](C)CN([C@@H](C)CO)C(=O)c2cc(NS(=O)(=O)c3ccccc3)ccc2O1` belongs inactive: 0.975; to `COc1ccc(S(=O)(=O)N(C)C[C@@H]2Oc3ccc(NS(=O)(=O)c4ccccc4)cc3CC(=O)N([C@@H](C)CO)C[C@@H]2C)cc1`, inactive: 0.995; to `Cc1ccc(S(=O)(=O)Nc2ccc3c(c2)CC(=O)N([C@H](C)CO)C[C@@H](C)[C@@H](CN(C)Cc2ccc(Oc4ccccc4)cc2)O3)cc1`, inactive: 1.
Under `CO[C@@H]1[C@@H](O[C@@H]2O[C@H](C)[C@@H](O[C@H]3C[C@@](C)(O)[C@@H](OC(=O)CC(C)C)[C@H](C)O3)[C@H](N(C)C)[C@H]2O)[C@@H](CC=O)C[C@@H](C)[C@@H](O)/C=C\C=C/C[C@@H](C)OC(=O)C[C@H]1OC(C)=O` stands inactive: 0.957; under `CCc1nc2ccc(C(=O)N3CCN(S(=O)(=O)CC)CC3)cn2c1N(C)C(=O)c1cccc(OC)c1`, inactive: 0.997.
For `C[C@@H]1CN([C@@H](C)CO)C(=O)c2cccc(NC(=O)c3ccc(-c4nccs4)cc3)c2O[C@@H]1CN(C)Cc1ccc(-c2ccccc2)cc1`, the relative growth is inactive: 0.983.
To `C[C@H](CO)N1C[C@H](C)[C@@H](CN(C)Cc2ccc(C(=O)Nc3ccccc3N)cc2)Oc2ccc(NC(=O)Nc3ccc(C(F)(F)F)cc3)cc2C1=O` belongs inactive: 0.984; to `O=C(C[C@@H]1C[C@H]2c3cc(NS(=O)(=O)c4ccc(F)cc4)ccc3O[C@H]2[C@@H](CO)O1)NCc1ccc(Oc2ccccc2)cc1`, inactive: 1; to `C[C@H](CO)N1C[C@H](C)[C@@H](CN(C)S(=O)(=O)c2ccc(F)cc2)Oc2ccc(NC(=O)C3CC3)cc2CC1=O`, inactive: 0.991.
With `C[C@H](CO)N1C[C@H](C)[C@@H](CN(C)C(=O)Nc2ccc3c(c2)OCO3)Oc2ccc(NC(=O)Nc3cccc4ccccc34)cc2CC1=O`, the relative growth is inactive: 0.971.
Under `C[C@@H]1CN([C@H](C)CO)C(=O)c2cc(NC(=O)NC3CCCCC3)ccc2O[C@@H](C)CCCCO[C@H]1CN(C)C(=O)C1CCCCC1` stands inactive: 0.993.
To `CCC(CO)NCCNC(CC)CO.Cl.Cl` (stereo not given) belongs inactive: 1.05; to `O=C(C[C@@H]1CC=CCC[C@@H](Cc2ccc(F)cc2)C(=O)OC[C@H](Cc2ccccc2)NC1=O)NCCO`, inactive: 0.992.
Regarding `COc1ccc(NC(=O)Nc2ccc3c(c2)C(=O)N([C@@H](C)CO)C[C@@H](C)[C@H](CN(C)C(=O)Nc2c(C)noc2C)OCCCC[C@@H](C)O3)cc1`, the relative growth was inactive: 0.967.
Under `CO[C@H](CN(C)S(=O)(=O)c1cccc(Cl)c1)[C@H](C)CN([C@H](C)CO)S(=O)(=O)c1cccc(Cl)c1` stands inactive: 1.03.
To `O=C(N/N=C/[C@H](O)[C@@H](O)[C@@H](O)[C@H](O)C(=O)O)c1ccccn1` belongs inactive: 1.01; to `C[C@H]1CN([C@@H](C)CO)S(=O)(=O)c2ccc(-c3cccc(C#N)c3)cc2O[C@@H]1CN(C)C(=O)c1ccncc1`, inactive: 0.99; to `C[C@]12C(=O)N(CCCCCO)[C@@H]3C(=O)N(c4ccc(Cl)cc4)CC=C[C@]31O[C@@H]1/C=C\CCCOC(=O)[C@H]12`, inactive: 0.967.
Under `C=CCN(CCCC)C(=O)[C@H]1N(C(C)(C)CO)C(=O)[C@H]2[C@H](C(=O)O)[C@@H]3C=C[C@@]21O3` stands inactive: 1.02; under `C[C@H]1CC=CC[C@@H](c2cccc(Cl)c2)NC(=O)[C@H](Cc2ccccc2)N(C)C(=O)c2ccccc2O1`, inactive: 1.03; under `CC(=O)Nc1cccc(NC(C)=O)n1`, inactive: 0.983.
With `C[C@@H]1CN([C@@H](C)CO)C(=O)c2cc(C#CC3CC3)cnc2O[C@H]1CN(C)S(=O)(=O)c1cccc(F)c1`, the relative growth is inactive: 1.01.
For `COCC(=O)N1C[C@H](C)[C@H](OC)CN(C)C(=O)c2ccc(NC(=O)c3cc(C)on3)cc2OC[C@@H]1C`, the relative growth was inactive: 0.999.
To `CC(=O)N(C)C[C@@H]1Oc2ncc(C#C[C@@H](C)O)cc2C(=O)N([C@H](C)CO)C[C@H]1C` belongs inactive: 1.01.
To `CC(C)(C)[S@@](=O)N1Cc2cc(C(=O)N3CCc4ccccc4C3)nc(-c3cccc(-c4cccnc4)c3)c2[C@H]1CCO` belongs inactive: 1.03; to `COC(=O)c1ccc2c(c1)NC(=O)CO2`, inactive: 0.995; to `c1ccc(-c2nc3ccccc3o2)cc1`, inactive: 0.985.
To `c1ccc(Nc2nc3c(ccc4ccccc43)s2)cc1` belongs inactive: 0.901; to `C[C@H]1CN([C@@H](C)CO)C(=O)c2cccc(NS(C)(=O)=O)c2O[C@H]1CN(C)C(=O)NC1CCCCC1`, inactive: 1.02; to `C[C@@H]1CN([C@@H](C)CO)C(=O)Cc2cc(NS(=O)(=O)c3ccc(Cl)cc3)ccc2O[C@@H]1CN(C)Cc1ccc(Cl)c(Cl)c1`, inactive: 1.03.
In the case of `C[C@H](CO)N1C[C@H](C)[C@H](CN(C)C(=O)[C@H](C)c2ccccc2)OCc2ccccc2-c2c(n(C)c3ccccc23)C1=O`, the relative growth was inactive: 0.995.
As for `CCCN(C)C[C@H]1OCCCC[C@@H](C)Oc2ccc(NC(=O)Cc3ccccc3)cc2C(=O)N([C@H](C)CO)C[C@H]1C`, the relative growth is inactive: 1.
Consider `O=C(N[C@@H]1C=C[C@@H](CC(=O)N2CCOCC2)O[C@H]1CO)c1ccccn1`, for which the relative growth is inactive: 1.
Take `C[C@@H]1CN([C@@H](C)CO)C(=O)c2cc(NS(C)(=O)=O)ccc2O[C@H]1CN(C)S(=O)(=O)c1cccs1`: the relative growth was inactive: 0.999.
For `C[C@H]1CC/C=C\[C@H]2O[C@@]34C=CCN(Cn5nnc6ccccc65)C(=O)[C@H]3N(CCO)C(=O)[C@@H]4[C@@H]2C(=O)O1`, the relative growth was inactive: 0.996.
To `COc1ccc(NC(=O)Nc2ccc3c(c2)C(=O)N([C@@H](C)CO)C[C@@H](C)[C@H](CN(C)C(=O)CCC(F)(F)F)OCCCC[C@H](C)O3)cc1` belongs inactive: 0.837.
Under `O=C(C[C@@H]1CC[C@@H](NS(=O)(=O)c2ccc(F)cc2)[C@H](CO)O1)N1CCC(Cc2ccccc2)CC1` stands inactive: 0.998; under `O=C1CCOC[C@@H]2CCCN12`, inactive: 0.98; under `COc1ccc(CN(C)C[C@H]2OCCCC[C@H](C)Oc3ccc(NC(=O)Nc4ccc(C(F)(F)F)cc4)cc3C(=O)N([C@@H](C)CO)C[C@H]2C)cc1`, inactive: 1.01.
To `C[C@@H]1CN([C@H](C)CO)C(=O)c2cccc(NC(=O)CCCCCC(=O)Nc3ccccc3N)c2O[C@H]1CN(C)C(=O)Nc1cccc2ccccc12` belongs inactive: 0.964; to `CO[C@H]1CN(C)C(=O)c2ccc(NS(=O)(=O)CC(F)(F)F)cc2OC[C@@H](C)N(C(=O)NC(C)C)C[C@H]1C`, inactive: 1.01; to `O=C(C[C@H]1C[C@@H]2c3cc(NC(=O)C4CCOCC4)ccc3O[C@@H]2[C@H](CO)O1)NCc1ccc2c(c1)OCO2`, inactive: 0.898.
Regarding `O=C1O[C@H](c2ccccc2)[C@H](c2ccccc2)N2[C@H]1[C@@H](C(=O)Nc1nc3ccccc3s1)[C@]1(C(=O)Nc3ccc(C#CCCO)cc31)[C@H]2c1ccccc1OCCO`, the relative growth is inactive: 1.05.

The record behind these values is the supplement of paper PMC9446081.
